Experimental findings from article PMC10726135 are described below.

This is one part of the list. At the low end of the ranking the order means little. Measured with an extract: partners may take part in the binding.

This test has as its target T1, HNF4alpha8 (COS-7 nuclear extract) (UniProt P41235-5).
T1 sequence: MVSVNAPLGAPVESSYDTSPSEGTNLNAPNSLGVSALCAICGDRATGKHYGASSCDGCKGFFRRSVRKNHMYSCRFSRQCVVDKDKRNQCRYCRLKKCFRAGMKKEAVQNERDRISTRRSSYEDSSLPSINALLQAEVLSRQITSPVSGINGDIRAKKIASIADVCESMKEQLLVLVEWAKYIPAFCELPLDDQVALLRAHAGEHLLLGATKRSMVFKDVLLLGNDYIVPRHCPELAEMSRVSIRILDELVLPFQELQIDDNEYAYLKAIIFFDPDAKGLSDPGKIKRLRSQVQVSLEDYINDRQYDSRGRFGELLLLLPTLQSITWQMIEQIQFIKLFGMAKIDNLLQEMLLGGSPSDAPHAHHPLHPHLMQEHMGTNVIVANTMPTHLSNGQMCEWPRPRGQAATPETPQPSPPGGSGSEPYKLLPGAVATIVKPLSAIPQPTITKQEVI
Nature of the test: protein-binding microarray. The conditions noted are these: COS-7 nuclear extract on double-stranded Agilent 4x180k PBM; binding buffer, salt, pH and temperature not given; high values mean tight binding; double strand, one strand shown; sequences stand for … in …GCCTAGGGAGATTAGAGTATCGGTCGA
In the case of ACCTAGAGGAGAGAGTAAATAATTGATGAA, the binding signal (log2 normalized intensity) was -1.41.

For the sequence AGGCTAGTAACACTCACATTCCACGTTTGG, the binding signal (log2 normalized intensity) was -0.281.

For the sequence GATGCTAGGTTTGTGAGTCCAAAGGTCAGC, the binding signal (log2 normalized intensity) was 9.81.

With GTAGCTCAAACAGTCTAAAAACCATAGACA, the binding signal (log2 normalized intensity) was -1.26.

Turning to CTGCTTGGGAGAACCTGTGCTTCTGGTTCT, the binding signal (log2 normalized intensity) came to 0.312.

For TACGCAACTGAAATTGCACTCTTTGACTAA, the binding signal (log2 normalized intensity) is -0.153.

CATTTGCTTGACCCGGGTACTGGAAACTGG: the binding signal (log2 normalized intensity) is 1.61.

As to GCAGAGCAGTTTAGAGAAAGGGTCAAAGGT, the binding signal (log2 normalized intensity) was determined as 6.23.

For ACTTCAAAAGCCGGGGAAAGGGAAAAAGGG, the binding signal (log2 normalized intensity) was -1.3.

Take AACAGCTGTGCCATGCTTTTCAGTGCAAGG: the binding signal (log2 normalized intensity) was -1.23.

Consider GCGCCGGGGGGACGCGCTTGGGCGACGGAC, for which the binding signal (log2 normalized intensity) was -1.27.

Take AGATACTATAATTAGAATCTGCAGGATCCC: the binding signal (log2 normalized intensity) is -1.13.

Take ATCATAGTGTTTGCCTTATTTGAACACAGT: the binding signal (log2 normalized intensity) is 1.81.

For the sequence CCTCCCCCTTGGTGTTTAAACACATTTTTT, the binding signal (log2 normalized intensity) is 2.52.

Regarding ACATTGGAATGCGGGCTCCACCACTTGCTC, the binding signal (log2 normalized intensity) was -1.29.

Consider AGTCCAGCTGTGCCCCAGTCCTTCAGTCCT, for which the binding signal (log2 normalized intensity) is 0.453.

On to ACTTAAAAGAAGCTACTAGCAAATCTGCCC, for which the binding signal (log2 normalized intensity) is -0.288.

As to ATGACCCTAATGGGGTACTTGAACCCTACT, the binding signal (log2 normalized intensity) was determined as 3.93.

On to GTTCCAAACCTACACAGACCCTCTTTTCTT, for which the binding signal (log2 normalized intensity) was -1.08.

For CCAGTGGAATGCAAATATAGAAATAAAAGA, the binding signal (log2 normalized intensity) was -1.3.

Consider TGCAGATAAGCCACGAGCCTGCCTGCTCCT, for which the binding signal (log2 normalized intensity) is -1.19.

AGATGGATTACATGGGAGATAGAGCAGTGG: the binding signal (log2 normalized intensity) was -1.26.

In the case of GGACTTTGTGCAAATGGAAAATTGTAATCT, the binding signal (log2 normalized intensity) was determined as 2.53.

With TTAAGAAGTAGGTGTGCCTCCTCCATCTCC, the binding signal (log2 normalized intensity) was -0.958.

As to GAAATGTAGTGACAGAAGGGAGAGTCCAAG, the binding signal (log2 normalized intensity) was found to be 0.199.

As for TACAGTTCTGGAGGTGAGAAGCCTGAAATG, the binding signal (log2 normalized intensity) was -1.34.

For AAGAATTCTTTCTCAAATATGTTTAACCTG, the binding signal (log2 normalized intensity) is 1.33.

TAAAGTCTACAAGTGGATATTCAGACCTCT: the binding signal (log2 normalized intensity) turned out to be 0.293.

Turning to CCCTTCCTGGCCAACATCCAGGCCTGGCAG, the binding signal (log2 normalized intensity) is -1.39.

Take ATAAGGCGTAGTTCAGAGAAAACGAGGCAC: the binding signal (log2 normalized intensity) was -1.12.

Consider CGCTTTCATGAGATGAAAGCTTCTGCGGAA, for which the binding signal (log2 normalized intensity) was -1.12.

TGCAAGTACGATTGGCTGGACATCTGGGAT: the binding signal (log2 normalized intensity) was -1.03.

For TGCTTTCTTATCTGGGGGCCATTCCTCTAT, the binding signal (log2 normalized intensity) is 1.4.

On to TTAATGCCTGGGAACACAATAGGAATTCAA, for which the binding signal (log2 normalized intensity) is -1.3.

As for CCTCCATTAACTAACCTTTGAACCAGATGG, the binding signal (log2 normalized intensity) worked out at 5.69.

For the sequence ATGCAATTTCTGAGAGAGAAAGAGACAGAG, the binding signal (log2 normalized intensity) was -1.36.

For the sequence TCAGGTTTCAAATACTCCAGTCATTGTACA, the binding signal (log2 normalized intensity) is 0.913.

For the sequence CACTTTAGGTGCTCTTGGCTAAGACAGGGG, the binding signal (log2 normalized intensity) is -1.37.

As for CCTTTGTATATTCCCTTTGTATGGCAGGGG, the binding signal (log2 normalized intensity) was 2.11.

In the case of AAACAGGGAGCAGGCAGATTTGACCTACGG, the binding signal (log2 normalized intensity) was 2.58.

With ATTTCACAAAGGGCAAAGTCCCCTTTCCTC, the binding signal (log2 normalized intensity) turned out to be 6.36.

For GACACACCTAGGGAGTTAATCACAGGATTT, the binding signal (log2 normalized intensity) is -1.21.

With GGGAACAAAACTTCACCTCCCCTAGACTTA, the binding signal (log2 normalized intensity) is 2.07.

For the sequence ACACAATATTATGTTTTGTTATCTGTGCCA, the binding signal (log2 normalized intensity) was found to be 0.628.

Take GTTCCAAAGTCCACCGTGGTGTAGAGGCCC: the binding signal (log2 normalized intensity) came out at 4.

As to CCTTATGTAACTGTAACTATATTGACCACC, the binding signal (log2 normalized intensity) turned out to be 1.98.

Regarding TGGAGTTTGCCCTTCACAAATTAGACAAGG, the binding signal (log2 normalized intensity) was 2.42.

For ACAGATTAAGTCACGTGGAGATAACACACA, the binding signal (log2 normalized intensity) is -1.01.

For the sequence CAGACCTTTGCCCTTTGTTTACATAGCTCC, the binding signal (log2 normalized intensity) is 4.61.

Take CCTCTGCCTCTTGACCCCTTGGCCCCGCTG: the binding signal (log2 normalized intensity) worked out at 4.87.

Turning to GTAGACTAACGTATGGACTTTCTGATGTCA, the binding signal (log2 normalized intensity) was found to be 2.18.

Consider GCAGTTTCTGCTATCTGCCTGCAGGAGAGA, for which the binding signal (log2 normalized intensity) was -1.08.

Regarding CCTACTCATTCATATCACCTAGGTGGAATC, the binding signal (log2 normalized intensity) was determined as 1.77.

For CTGAACTTTAAACTGGTGTGTCTTGCCTTT, the binding signal (log2 normalized intensity) was 2.42.

In the case of GGGCCTCCATATTTGGAAGTAAGAACCCCA, the binding signal (log2 normalized intensity) was 2.17.

AAAGAGCCATGGACTGCTGACCTTTGAACC: the binding signal (log2 normalized intensity) amounted to 9.59.

With GTCATTGATGAAACTCCTTCCCTTTCATGT, the binding signal (log2 normalized intensity) was 1.43.

Take AATCAAACTGAACTTTGAAACAAGCCCATC: the binding signal (log2 normalized intensity) was 3.87.

For the sequence ACGCAAGCGAGTAAGGCCCGTGAGATTGAA, the binding signal (log2 normalized intensity) is -0.921.

For GGAGGTTATCTTGGGGCTGATGTCTTTCTG, the binding signal (log2 normalized intensity) was found to be 1.68.

Take ACCGGCAGAGAGAAGCCACTGCGACCTTTG: the binding signal (log2 normalized intensity) worked out at 5.59.

With AGTTGGTTGGAGCTATGGGCAGAAAAAAAT, the binding signal (log2 normalized intensity) was -0.989.

Take TAAAGTCCGAACCTGCCAAAGAAGAAAACA: the binding signal (log2 normalized intensity) was -1.36.

For CTTCCACCAGGGCTAGACCCGTCAGCCCTG, the binding signal (log2 normalized intensity) was -1.12.

Regarding AGAGCATGAGAACTTCTTCCAATGAAAGGT, the binding signal (log2 normalized intensity) is -1.13.

Take CCTTTGAAGTGGGGGTGAGTCAGTCCCCAG: the binding signal (log2 normalized intensity) is 1.57.

Regarding ACGGTGCAGGGAGGATATCCCTCCGCCTCC, the binding signal (log2 normalized intensity) is -1.26.

Regarding GGCTGGTTTAACTGACCCAGGGAGAAAGGT, the binding signal (log2 normalized intensity) came out at 0.159.

As to CAAAGACTAATGCATTCCCAGCAAGTGAAG, the binding signal (log2 normalized intensity) was -1.37.

In the case of GATTGTCACAAGACTGTTATCACAGCTGGC, the binding signal (log2 normalized intensity) is -1.38.

Regarding GTCTAAGCTAGTCATAGCTGGGTTTCCAGC, the binding signal (log2 normalized intensity) was -1.32.

For the sequence GCCGAGAGCGGCTCGTTGGTCTAGGGGTAT, the binding signal (log2 normalized intensity) is -1.05.

Regarding AGGCTCCCCTAATCCCTGTGACATTTTCAG, the binding signal (log2 normalized intensity) is 1.09.
